Source: publication PMC4336329 (PLoS ONE, 2015)
The whole screen tested about 310,000 compounds, of which about 14,000 (4.5%) showed an effect of 50% or more. The effect is printed as a negative number. The list shows a part of the results.

Molecular target: human ether-à-go-go-related gene (hERG) potassium channel (human, UniProt Q12809)
Assay: primary screen, population patch clamp on CHO cells stably expressing hERG
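Note: peak tail current of the secondary pulse compared with the same well before compound.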

Sequence of human ether-à-go-go-related gene (hERG) potassium channel (Q12809 whole entry, looked up): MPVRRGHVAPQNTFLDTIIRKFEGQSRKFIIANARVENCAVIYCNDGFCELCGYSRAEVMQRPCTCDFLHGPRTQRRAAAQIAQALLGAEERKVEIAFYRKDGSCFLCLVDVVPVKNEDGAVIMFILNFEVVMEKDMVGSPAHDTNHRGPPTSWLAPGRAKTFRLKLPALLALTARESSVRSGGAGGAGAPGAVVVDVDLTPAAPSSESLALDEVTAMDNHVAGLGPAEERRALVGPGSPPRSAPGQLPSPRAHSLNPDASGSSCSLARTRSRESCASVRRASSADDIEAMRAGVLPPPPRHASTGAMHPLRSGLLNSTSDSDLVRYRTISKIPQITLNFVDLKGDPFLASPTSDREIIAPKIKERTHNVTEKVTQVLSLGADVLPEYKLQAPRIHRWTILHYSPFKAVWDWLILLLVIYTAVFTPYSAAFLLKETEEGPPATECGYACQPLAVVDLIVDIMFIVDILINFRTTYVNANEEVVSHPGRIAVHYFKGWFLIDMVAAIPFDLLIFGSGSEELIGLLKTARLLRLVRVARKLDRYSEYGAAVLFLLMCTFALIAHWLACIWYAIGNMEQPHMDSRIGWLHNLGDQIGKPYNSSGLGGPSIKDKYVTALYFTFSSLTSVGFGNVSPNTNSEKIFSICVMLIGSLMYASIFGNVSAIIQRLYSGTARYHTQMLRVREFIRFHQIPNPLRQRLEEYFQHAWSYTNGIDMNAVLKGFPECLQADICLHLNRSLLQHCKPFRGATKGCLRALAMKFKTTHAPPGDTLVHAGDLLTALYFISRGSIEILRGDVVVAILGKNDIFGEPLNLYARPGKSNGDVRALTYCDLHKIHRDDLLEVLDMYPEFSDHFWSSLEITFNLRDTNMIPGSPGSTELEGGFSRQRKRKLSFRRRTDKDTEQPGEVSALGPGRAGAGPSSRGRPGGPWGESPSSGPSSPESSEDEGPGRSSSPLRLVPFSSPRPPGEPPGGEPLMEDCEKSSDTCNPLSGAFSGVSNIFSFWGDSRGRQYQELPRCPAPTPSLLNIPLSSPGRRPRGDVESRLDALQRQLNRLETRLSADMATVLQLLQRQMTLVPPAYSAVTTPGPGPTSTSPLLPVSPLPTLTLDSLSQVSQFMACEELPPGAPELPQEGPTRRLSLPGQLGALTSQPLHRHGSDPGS

Point of comparison: `COc1cccc(OCCCN2CCCCC2)c1`, “hERG current change (%, negative = inhibition) at 10uM” value -16.2%. Against it:
- COC(=O)c1ccccc1NC(=O)Cn1ccnc1 — higher, -8.31%
- COc1cccc(OC)c1OCCCOc1c(OC)cccc1OC — higher, 2.41%
- CC(C)CNS(=O)(=O)c1ccc(C(=O)Nc2ccc3c(c2)OCCO3)cc1 — higher, 18.3%
- Cc1c(NS(=O)(=O)c2cc(C(=O)NCc3ccco3)cc(Cl)c2Cl)c(=O)n(-c2ccccc2)n1C — lower, -39.5%
- C[C@]12CCC(=O)C=C1CC[C@@H]1C2[C@H](O)C[C@]2(C)C(=O)CCC12 (some centres unmarked) — higher, 18%
- COc1ccc2c(C)cc(SCC(=O)Nc3ncc(Cl)cc3Cl)nc2c1 — lower, -17.5%
- CC(NC(=O)CN(c1ccc(Cl)cc1)S(C)(=O)=O)c1ccccc1 (centres unmarked) — higher, 8.32%
- Cc1ccc(OCC(=O)O/N=C(\N)c2cccnc2)cc1 — higher, 10.4%
- CN(Cc1ccc(F)cc1)C(=O)C(Cc1ccccc1)NC(=O)c1ccccc1 (centres unmarked) — higher, 10.3%
- O=C(NCCNc1ccc([N+](=O)[O-])cc1C(F)(F)F)c1ccccc1 — lower, -49.1%
- O=C(Nn1cnc2ccccc2c1=O)C1CCCCC1 — higher, -2.26%
- CN(C(=O)COC(=O)/C=C/c1cn(-c2ccccc2)nc1-c1ccc2c(c1)OCCO2)C1CCS(=O)(=O)C1 (centres unmarked) — higher, -3.86%
- N#Cc1c(N)nc2c(c1N)CC(=O)N2c1ccccc1-c1ccccc1 — higher, -0.581%
- Cc1cccc(NC(=O)c2sc3ncn(CC(=O)N4CCN(c5ccccn5)CC4)c(=O)c3c2C)c1 — lower, -61.4%
- O=C(CN1C(=O)CSc2ccc(C(F)(F)F)cc21)Nc1ccccc1 — higher, 4.01%
- CC(=O)N1CCCN(C(=O)c2cc(COc3c(F)cccc3F)on2)CC1 — higher, 6.58%
- CC(=O)N1N=C(c2cccs2)CC1c1ccc(C)o1 (centres unmarked) — higher, 7.07%
- CC1CCCN(CCS(=O)(=O)c2ccccc2)C1 (centres unmarked) — higher, 3.59%
- C[C@@H]1O[C@@H](O[C@H]2C[C@@H](O)[C@]3(CO)[C@H]4[C@H](O)C[C@]5(C)[C@@H](C6=CC(=O)OC6)CC[C@]5(O)[C@@H]4CC[C@]3(O)C2)[C@H](O)[C@H](O)[C@H]1O.O — higher, 11.1%
- O=C(NCCc1ccc(C(F)(F)F)cc1)C1CC(=O)N(Cc2ccccc2)C1 (centres unmarked) — lower, -23.3%
- O=C(Nc1ccccc1Cl)c1ccn[nH]1 — higher, 0.778%
- COc1ccc(/C=C(/NC(=O)c2ccccc2)C(=O)N2CCCC2)cc1OC — higher, 10.4%
- CC(C)NC(=O)NC(=O)COC(=O)c1cccc(S(=O)(=O)N2CCCCC2)c1 — higher, 6.5%
- COc1cc(CC(=O)OCC(=O)Nc2ccc3c(c2)OCCO3)cc(OC)c1OC — higher, 26%
- Cc1ccc(C(=O)C(C)OC(=O)Cn2cnc3c2c(=O)n(C)c(=O)n3C)cc1 (centres unmarked) — higher, -0.153%
- COCc1c(Br)c(C)nc(OCC(=O)N/N=C/c2cc(C)n(-c3ccc([N+](=O)[O-])cc3)c2C)c1C#N — higher, 6.63%
- COC(=O)c1ccc2c(=O)n(-c3ccccc3)c(SCN3C(=O)c4ccccc4C3=O)nc2c1 — higher, 11%
- COc1ccc(C(C)C)cc1S(=O)(=O)n1ccnc1C — higher, 5.01%
- Cc1cc(C)cc(NC(=S)N2CCN(C(=O)c3ccco3)CC2)c1 — higher, -0.347%
- Cc1c(NS(=O)(=O)c2ccc3c(c2)c(=O)n(C)c(=O)n3C)c(=O)n(-c2ccccc2)n1C — higher, -4.9%
- Cc1ccc(C)c(N2CC(C(=O)OCC(=O)Nc3cc(C)on3)CC2=O)c1 (centres unmarked) — higher, 8.55%
- COCCCNC(=O)Cn1cnc2sc(C)c(S(=O)(=O)N3CCN(c4ncccn4)CC3)c2c1=O — higher, 8.44%
- COc1ccccc1NC(=O)COC(=O)C1CC1 — higher, 5.22%
- OCC1(CCOc2ccccc2)CCN(Cc2cn[nH]c2-c2ccc(F)cc2)CC1 — lower, -71.6%
- Cc1cccc(COc2ccccc2C(=O)N(C)CC(=O)Nc2cccc(F)c2)c1 — higher, -4.68%
- CCOc1cccc(-c2nnc(SCC(=O)Nc3cc(OC)cc(OC)c3)n2N)c1 — higher, -1.3%
- CCOC(=O)/C=C/C(=O)OCC(=O)Nc1ccc([N+](=O)[O-])cc1 — higher, -9.09%
- CCOc1ccc(-c2cccc(NS(=O)(=O)c3ccccc3[N+](=O)[O-])c2)nn1 — higher, -3.5%
- Cc1ccc(NC(=O)C2C(=O)N(CCO)C3(C)CC2c2ccccc2O3)cc1 (centres unmarked) — lower, -34.3%
- CN1CCN(C(=O)c2cnn(-c3ccccc3)c2NC(=O)c2ccccc2F)CC1 — higher, -6.68%
- CCCCc1ccc(NC(=O)C2CCN(S(C)(=O)=O)CC2)cc1 — higher, -1.64%
- CCCCC(=O)NCc1ccc(F)cc1 — higher, 9.88%
- COc1cccc(NC(=O)C(=O)NCC2CCCN2S(=O)(=O)c2ccccc2)c1 (centres unmarked) — lower, -21.2%
- COc1cccc(CNCCc2ccc(F)cc2)c1.O=C(O)C(=O)O — higher, -9.82%
- CCOc1ccccc1NC(=O)NCc1ccc(F)cc1 — higher, -4.84%
- COc1ccc(-c2nnc(SCC3CCCO3)n2C)cc1 (centres unmarked) — higher, 0.931%
- O=C(NC1CCCCC1)C(Cc1ccccc1)NS(=O)(=O)c1cccs1 (centres unmarked) — higher, 18.2%
- CCCN(C(=O)c1cn(-c2ccccc2)nc1-c1ccc(OC)cc1)C1CCS(=O)(=O)C1 (centres unmarked) — lower, -22.8%
- CCCCCC(=O)Nc1ccc(C(=O)CN2C(=O)NC3(CCCCCC3)C2=O)cc1 — higher, 5.54%
- Cc1cc(C)cc(Oc2ccccc2C=O)c1 — higher, 8.9%
- CC(C)Cc1nnc(NC(=O)CCC(=O)N2CCC3(CC2)OCCO3)s1 — higher, 12.3%
- CCCCNC(=O)Nc1ccnn1C1CCCCC1 — higher, 10.7%
- O=S(=O)(NC1CCCC1)c1cccc(-c2nnc(-c3ccccc3)o2)c1 — higher, 4.25%
- CCN(CC(=O)Nc1c(F)cccc1F)C(=O)c1cc(S(=O)(=O)NCc2ccccc2)ccc1C — lower, -24.9%
- CCCCC(=O)NC1(C(F)(F)F)C(=O)N(CC(C)C)C2=C1C(=O)CC(C)(C)C2 (centres unmarked) — higher, 5.13%
- Nc1nnnn1CC(=O)N/N=C/c1ccc(-c2cccc(Cl)c2)o1 — higher, 8.79%
- Cc1cc(CN2C(=O)c3ccccc3C2=O)on1 — higher, 14.8%
- COC(=O)c1nc(NC(=O)C(C)(C)C)n[nH]1 — higher, -0.145%
- COc1cc(/C=N/NC(=O)c2ccc(F)cc2)ccc1OC(=O)c1ccco1 — higher, -14.1%
- COc1cccc(N2CCN(Cc3nc(N)nc(Nc4ccccc4OC)n3)CC2)c1 — lower, -25.6%
- CCn1c2ccccc2c2cc(NC(=O)CSc3nnc(-c4ccc(OC)cc4)n3N)ccc21 — higher, -10.9%
- C=CCSCC1Nc2cc(Cl)c(S(N)(=O)=O)cc2S(=O)(=O)N1 (centres unmarked) — higher, 8.41%
- Cc1ccc(OCCn2cc(C(=S)N3CCCC3)c3ccccc32)cc1C — higher, 10.3%
- CCCc1[nH]c2ccc(C#N)cc2c1CCC — higher, 29.1%
- O=c1c2cc(NC(=S)NC3CC3)ccc2nc2n1CCCCC2 — higher, 0.786%
- O=C(c1cc2ccccc2oc1=O)N(Cc1ccc(F)cc1)C1CCS(=O)(=O)C1 (centres unmarked) — lower, -26.2%
- CCOc1cc(C(=O)OCC(=O)Nc2ccc(Cl)cn2)ccc1OCC(=O)N1CCOCC1 — higher, -13.9%
- COc1ccc(CC(=O)N/N=C(\C)CC(=O)Nc2ccc(N(C)C)cc2)cc1 — higher, 12.4%
- OCc1nc2ccccc2n1CCCCOc1ccccc1 — higher, 0.828%
- COc1ccccc1NC(=O)CSCc1nc2ccccc2[nH]1 — higher, -14.2%
- C=CCn1c(O)c(C(C)=NCCN2CCCCC2)c(=O)[nH]c1=O — higher, -1.71%
- CC(=O)c1cccc(NC(=O)c2cccc(S(=O)(=O)N3CCOCC3)c2)c1 — lower, -16.5%
- Cc1c(C(=O)NCC2CCCO2)oc2c(Cl)cccc12 (centres unmarked) — higher, 6.69%
- Cc1ccc(/C=C2/Sc3ccc(C(=O)NCc4ccccn4)cc3NC2=O)cc1 — higher, 9.04%
- CCOCCCNC(=O)N1CCOCC1 — higher, -6.23%
- Cc1ccc(CCN2CC(C(=O)O)CC2=O)cc1 (centres unmarked) — higher, -0.636%
- COc1cccc(-c2cc(C(=O)Nc3cnn(Cc4ccccc4C)c3)no2)c1 — higher, 1.73%
- CC(OC(=O)c1ccc([N+](=O)[O-])o1)C(=O)NC1CCCCC1C (centres unmarked) — higher, -1.63%
- CCC(C)NC(=O)COC(=O)Cc1sc(N)nc1-c1ccc(C)cc1 (centres unmarked) — higher, 5.22%
- Cc1ccc(NC(=O)C2CCN(C(=O)c3ccc(Cl)cc3)CC2)nc1 — lower, -23%
- O=C(Oc1cccc(-n2cnnn2)c1)c1ccccc1Cl — higher, 6.88%
- CC(C)(C#CC(=O)[O-])OOC(c1ccccc1)(c1ccccc1)c1ccccc1.[Na+] — higher, 12.8%
- COCCCN=C1NN=C(c2cc(C)n(-c3ccccc3)c2C)CS1 — higher, 4.75%
- CCOP(=O)(OCC)C(NC(=O)/C=C/c1ccc(OC)cc1)c1ccccc1 (centres unmarked) — higher, 18.7%
- Fc1ccccc1Cn1nnc2c(-n3ccnc3)ncnc21 — higher, 6.47%
